This is an account of results in article PMC3087822 (Nature structural & molecular biology, 2011).

For the assay, the target named is full-length rat Munc18-1 (rat). Put plainly: SEC. (In general: SEC sorts molecules by how far they enter the pores of the column.)

B1: syntaxin-1A([…]) (C145S, S249C), rhodamine-labeled (domain or fragment)
chain: not shown
With B1, the binding result was “binds”.

B2: syntaxin-1A([…]) (R210E, C145S, S249C), rhodamine-labeled (domain or fragment)
chain: not shown
B2: the binding result is listed as “binds”.
